Experimental data published in publication PMC4242493.
This is one part of the list. The list includes weakly bound sequences.

Molecular target: MaxL homodimer (UniProt P61244)
Assay: universal protein-binding microarray (PBM)
Details: PBS-based mixture, 10 nM His-tagged protein dimer, 2% milk, 200 ng/uL BSA, 50 ng/uL salmon testes DNA, 0.02% TX-100; detection with Alexa 488 anti-His …; high values mean tight binding; most listed sequences are background and not binding sites; double strand, one strand shown

UniProt P61244, sequence (P61244 whole entry): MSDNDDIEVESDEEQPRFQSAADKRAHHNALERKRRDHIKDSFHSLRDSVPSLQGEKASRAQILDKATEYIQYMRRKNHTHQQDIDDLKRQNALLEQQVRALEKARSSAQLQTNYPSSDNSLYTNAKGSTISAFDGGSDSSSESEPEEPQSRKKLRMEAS

Sequence | binding signal (normalized occupancy)
GCTAATGA | 0.0804
ACTAAGAC | 0.0733
CCCCTCTA | 0.0742
AAATAAGC | 0.0745
GATGAGAC | 0.0717
AACAAGGC | 0.0748
AAATTATG | 0.0799
TCGGCACA | 0.0774
ACGGAAGC | 0.0733
AAAGCGTT | 0.0746
CCTCTCCC | 0.0727
CTTGACAC | 0.0776
ATCAACTG | 0.0748
AGCCTCGC | 0.0797
AATAGAGG | 0.0706
GGTTCGAC | 0.0712
CAGTTTGG | 0.0706
CGGAATTA | 0.0751
GATGTATA | 0.0841
TAACCCGA | 0.0768
CGGCTGAG | 0.0683
ACAATGGC | 0.0783
GAAGGGAC | 0.0676
GTCTGGAA | 0.0804
GTAATAAC | 0.0828

Sequence | binding signal (normalized occupancy)
ACTACTGA | 0.0721
GGGTAGGA | 0.0738
ACCCCGGT | 0.0743
ACTGCCGG | 0.0684
GGATGAGA | 0.0761
AAGCATCA | 0.076
GCATGACC | 0.0988
ACTGTGCA | 0.0781
CTAGCCCA | 0.0746
CCGTTTTC | 0.0725
CAGAAATC | 0.0751
CTCGAGCA | 0.0781
GCACGGAA | 0.0719
CCGGTTGC | 0.069
TCTAACCA | 0.0757
TCGTACAA | 0.0785
GCTATCGA | 0.075
ACCCCAAC | 0.0781
AACCCTTC | 0.0746
CCAGAATA | 0.0786
GCTGCGAA | 0.0718
AAGGAGGG | 0.0766
AGGAGTGC | 0.0739
GACGGATC | 0.0692
GAAAATGC | 0.076

Sequence | binding signal (normalized occupancy)
ATTCCAGA | 0.0779
CACAACAC | 0.0821
GGTGGGAC | 0.0719
TCCTTGAA | 0.0749
AGATGTGG | 0.0868
ACAATGCG | 0.0867
AGTTGGAT | 0.0766
ATATGGAC | 0.0892
ACCGCACT | 0.0707
GATGCATC | 0.0787
CAGGATCC | 0.0718
ACTTCCGG | 0.0682
GGCCAGGA | 0.0696
CAAAGATG | 0.0737
AACAAGCA | 0.0744
GAATATAA | 0.0791
ACCCGCTA | 0.0692
CTTGGACC | 0.0707
GCCTTTCA | 0.0716
ATTCAACC | 0.0752
ACCGGTAT | 0.0748
AGATAATA | 0.0791
CGTAGTAC | 0.0733
AGTAACTC | 0.0742
CAAGTAGA | 0.0752

Sequence | binding signal (normalized occupancy)
GCACGTCC | 0.0788
GAAATGGA | 0.0742
GTTATATA | 0.0878
ACGGCCGT | 0.0644
GGTACACA | 0.0779
CATGCCAA | 0.0927
AGCTCATG | 0.0881
ACGGTCAT | 0.0787
AAGAATGA | 0.0754
CTGATGCC | 0.0717
ACATTACT | 0.0821
CATACTAC | 0.0805
AGCCTGCA | 0.0704
CTATCGAC | 0.0767
CCAAAGAA | 0.071
AAATGCAC | 0.0827
ATAGTTCG | 0.0764
CCGCAGAC | 0.0709
CCCTGGCG | 0.0693
AACCCGAG | 0.0727
CACATCTC | 0.0861
CAGTGCAC | 0.0755
ATGAGACA | 0.0828
CTCTCGAC | 0.0727
GGCGAGGA | 0.0746

Sequence | binding signal (normalized occupancy)
GAACGGGA | 0.0721
CGGAGGTC | 0.0744
ATGTACAT | 0.0891
CCTCGGAC | 0.0725
CGGAGCGA | 0.0623
AAGCGCCT | 0.073
AATTCGGA | 0.0724
ATTAAAAC | 0.0783
AAAGGACA | 0.0747
GTGGAATA | 0.0822
CAATGCCC | 0.0771
CCAGCAAC | 0.0739
AGCAACAA | 0.0698
AAGCTTAG | 0.0693
ATCGTAAC | 0.0738
AAACCGTT | 0.075
ATGCAGAC | 0.0785
TCAGTGCA | 0.0743
AACGCTGC | 0.0786
GACGCCCC | 0.0729
ATCACGAC | 0.0753
GAGCCACA | 0.0769
CAACCAGA | 0.0757
ACAGATAT | 0.0819
CCGTGGAC | 0.0739

Sequence | binding signal (normalized occupancy)
TGACAGAA | 0.0768
ATCCTTTG | 0.0778
GCATAAAA | 0.0781
CAAAATTA | 0.0735
ATGCGTTC | 0.0856
GCCTAGAC | 0.0706
CCCTAGCG | 0.0722
ATCCGGCG | 0.0703
ACGATCCT | 0.0794
AACTCTTG | 0.0726
CTCTTTTC | 0.0744
GAGGATAC | 0.0836
GTGCGTAA | 0.078
CCATCAGG | 0.0773
AAGCGGAG | 0.067
ACGCGCTG | 0.077
ACATACTG | 0.0824
AAAGCGTG | 0.11
ACTAATTG | 0.0791
CCAAGTTC | 0.0732
GTCAATCA | 0.0778
ATATTACG | 0.0853
CCCCAATC | 0.078
CACAGTCG | 0.0705
GACCATCC | 0.0844

Sequence | binding signal (normalized occupancy)
AGTAAGAG | 0.0747
ACAGTCCC | 0.0707
ACCTCTCC | 0.0775
GAACGGCA | 0.0699
AGTATTAG | 0.0714
CAAGTTAA | 0.071
AGGGAGAT | 0.0742
CAGAATAG | 0.0739
GTAGAATA | 0.0826
CACGGGAC | 0.0828
AGTACTGC | 0.076
AAACTGCA | 0.075
AAGGATAC | 0.0777
ATACACGC | 0.102
CCAGCTGC | 0.0673
CACATCTA | 0.084
AGCAGTGC | 0.0756
AGCGTGTC | 0.0932
AACTCTTC | 0.0724
AGTCGTAT | 0.0756
CGTTTCAC | 0.0736
CGCAACCA | 0.0787
CACCCTCC | 0.0765
CCTATCTC | 0.0785
AGTGCGAG | 0.073

Sequence | binding signal (normalized occupancy)
AGTCTGAA | 0.0685
AAAGGCAG | 0.0731
AGTAGGAT | 0.076
AGGAAACC | 0.0712
GAGATACC | 0.0724
AAAGCCTC | 0.071
GACCCTTA | 0.0785
GACGTAGA | 0.0773
ATAGGCGC | 0.0783
CCAACTGG | 0.0679
ACAAGACC | 0.0734
AATTAGCC | 0.0676
AAAAGGAA | 0.0699
ATGTCCCC | 0.0822
AAGTAATA | 0.0798
GCATTCAA | 0.0748
CCTGGCCG | 0.0702
ATCATGAA | 0.0779
GGCCCGTA | 0.0715
TCGCAAGA | 0.0725
ATCCAGGA | 0.076
ACCATATA | 0.0814
ATGGGTCG | 0.0768
AGGTAGCA | 0.0778
CTGATCTC | 0.0735

Sequence | binding signal (normalized occupancy)
AAAGCTTC | 0.0688
GCCCCACA | 0.0784
AGATGCCC | 0.0786
CCGTCGGC | 0.0671
AGGACTCC | 0.0697
ACCCGAAA | 0.0737
CGTCCAGC | 0.0725
AAAGCCTA | 0.0705
CGATGAGA | 0.078
GACGCTGC | 0.0724
CTTCTTCA | 0.0712
AGTTAGGA | 0.0725
ACACCGAT | 0.0769
AGAGATGA | 0.0744
ATCACTCA | 0.0792
AAGCTATG | 0.0712
GAACTCTC | 0.071
ACCAGCTC | 0.0671
CCATCACC | 0.0798
CAACCACA | 0.0806
CGCGTGGC | 0.154
GAGCTGGC | 0.0702
CGTATCTC | 0.073
ATGCTATG | 0.0837
GGTGGGCA | 0.0841

Sequence | binding signal (normalized occupancy)
AGCAAAGG | 0.0691
CCGATTAG | 0.0723
CCTCGTTA | 0.0752
CCCTGTCC | 0.0739
GTTGTACA | 0.0782
TGTGAGAA | 0.0813
AAGGCACC | 0.0717
ATAGATTC | 0.0881
ATTTGGGA | 0.0732
CAGGCTGC | 0.0731
CCGCAGAA | 0.0655
CGGATCCC | 0.0737
GCCCATTA | 0.0749
GGAGACTA | 0.0726
AAGAGGAG | 0.0702
CCATGGGC | 0.0785
ATTATGTG | 0.0836
CCCCGTTA | 0.0766
GGGCGACA | 0.0769
CCGGGCCA | 0.0671
ACAGCTAT | 0.0762
GATTAACC | 0.075
ATAATTGA | 0.0797
ATAATAAA | 0.076
CTGCTCGA | 0.071

Sequence | binding signal (normalized occupancy)
CACAATCA | 0.0806
ACGGCAGG | 0.0676
GCATGAGC | 0.0948
ATCATCCA | 0.086
CGTTCCCC | 0.0749
AGATCCCC | 0.0832
AGAGATTA | 0.0751
CAGGGATG | 0.0827
CCATCAAA | 0.0773
GCGTCTAC | 0.0694
CAAGTCTG | 0.073
AGAAGGCT | 0.0711
AAAAAATT | 0.0746
CCGGTTCG | 0.073
TCAGAGAA | 0.073
CCGACTTC | 0.067
GATGTCCA | 0.0757
CATATCAC | 0.0882
AATTACCA | 0.0786
CTGTACCA | 0.0765
GGCCAGCA | 0.0747
CAAACGCC | 0.0722
CCCTGACA | 0.0822
AAGTTGGC | 0.0715
GCCGGGGA | 0.073

Sequence | binding signal (normalized occupancy)
AGTCAAGA | 0.0758
CGCGTCAG | 0.0721
TAAATGAA | 0.077
CTCGGCAA | 0.0681
TAGAGACA | 0.0726
AGCGCCCT | 0.0671
ATAGTCTG | 0.0754
ATCGTGCG | 0.0851
CGCCCTGA | 0.0711
CATCCGTA | 0.0744
CCAAGACA | 0.0796
CATCACTA | 0.0774
AACATGCG | 0.101
GTTTCGGA | 0.0744
AGCTACTG | 0.0691
CATACGTA | 0.0844
GTAAAACA | 0.0763
CCCACGAA | 0.0758
TATTATCA | 0.0857
AGATGCGG | 0.0753
AGCGAGGA | 0.0736
CGGCGAAG | 0.0671
TAAACACA | 0.0817
CGAGGAGA | 0.0753
CATTCGCC | 0.0752

Sequence | binding signal (normalized occupancy)
TAGCTGCA | 0.0763
ATCGGAGA | 0.0709
CAGTCATC | 0.0718
ATGACCTG | 0.0798
CACATTGA | 0.0932
CCCTGTAG | 0.0763
ACCAGAAG | 0.0788
CCCGACCA | 0.0752
CAGCCAGG | 0.0778
TATCAACA | 0.0868
ATCCGTAC | 0.0728
CGGTTAGC | 0.0682
TCAAGTAA | 0.0775
AATGTCGT | 0.0786
AACTTACG | 0.0727
ACTATTCG | 0.0759
AGGATCGC | 0.0781
CGCCACGA | 0.0799
CGAGCTTA | 0.0713
CCAGTGGC | 0.069
AAACGCCT | 0.073
AAGTGACT | 0.0735
ATGGCAAA | 0.0762
CGCTTATC | 0.0755
GTGCCGTA | 0.0787

Sequence | binding signal (normalized occupancy)
ATCGAGTC | 0.0722
ACCGGAAC | 0.0673
CGTGCATA | 0.0922
ACAGGTGC | 0.0832
CCACTTTA | 0.074
CATCCAAC | 0.0795
CTACAAGA | 0.0752
CGGTAAAA | 0.0692
CCACTAAC | 0.0749
CGCCCCTC | 0.0723
CACTAGTC | 0.0808
CAGATTGA | 0.0758
CTTAATCA | 0.073
AACCTGAT | 0.0838
ACTTCTCT | 0.0761
ACGATCCC | 0.0772
CCAATCAA | 0.0793
ACTTACAC | 0.078
ACGCAGCG | 0.0707
